Inconclusive results, whose numbers are uncertain, are shown with a selection of clear calls. Potencies of inconclusive entries are doubtful fits and often do not repeat. Calls of active or inactive are those of the source. Calls come from the whole dose curve; as a rule, active = well fitted cell-killing curve with a large enough effect; inconclusive = small, poorly fitted or top-dose-only effect, or effect the other way; inactive = flat fitted curve, though single readings scatter.
tested on: SKOV3; assay: Primary qHTS to identify gynecologic anti-cancer compounds using libraries of approved drugs and bioactive compounds (AID 1345084); conditions: Gynecologic cancer cell panel viability, ATPlite luminescence, 48 h; series mostly up to 57.5 µM; activity change, negative = cytotoxicity: at the top concentration; note: nearly all actives have a fitted effect of over 55% in size
Method in brief: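 Cells, 1,000 per well, plated 16 h, then exposed 48 h at 37 C to compounds. Viability by ATPlite luminescence after 15 min at room temperature.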
% is set by controls: 0 for no effect and ±100 for the full control effect; potency is the fitted concentration of half-maximal effect; tags give direction and shape of the fitted curve.

| SMILES | Potency | activity change, negative = cytotoxicity |
| --- | --- | --- |
| O=C(N[C@@H](COc1ccc2[nH]c(=O)[nH]c2c1)c1ccccc1)c1cccn(Cc2ccc(F)c(F)c2)c1=O | inconclusive: 28.2 µM [cytotoxic, single point] | – |
| CC1N=C(N)OC1c1ccccc1 (stereo not given) | inconclusive: 70.8 µM [cytotoxic, single point] | – |
| CC(C)=CC1C(C(=O)OCN2C(=O)C3=C(CCCC3)C2=O)C1(C)C (stereo not given) | inconclusive: 7.08 µM [cytotoxic, single point] | – |
| Clc1ccc(CSC(Cn2ccnc2)c2ccc(Cl)cc2Cl)cc1 (stereo not given) | inconclusive: 39.8 µM [cytotoxic, single point] | – |
| COc1ccc2c(c1OC)C(=O)O[C@H]2[C@@H]1c2cc3c(cc2CCN1C)OCO3 | inconclusive: 10 µM [rising, partial curve, poor fit] | – |
| CCN(CC)C(=O)c1ccc(C2=CC3(CCNCC3)Oc3cccc(O)c32)cc1 | – | inactive: -2.97% |
| O=C(N[C@H]1N=C(c2ccccc2F)c2cccc3c2N(CC3)C1=O)c1cc2ccccc2[nH]1 | inconclusive: 7.08 µM [cytotoxic, single point] | – |
| CN1CCN(c2nc3ccccc3nc2Cl)CC1 | inconclusive: 7.08 µM [cytotoxic, single point] | – |
| CC(C)N(CCNC(=O)CN1CCCC1=O)C(C)C | inconclusive: 39.8 µM [rising, single point] | – |
| N#Cc1nn(-c2c(Cl)cc(C(F)(F)F)cc2Cl)c(N)c1S(=O)C(F)(F)F (stereo not given) | inconclusive: 1.12 µM [cytotoxic, full curve, poor fit] | – |
| NCc1cccnc1 | – | inactive: 22.2% |
| O=C(O)c1ccc(=O)[nH]c1 | inconclusive: 0.794 µM [cytotoxic, full curve, poor fit] | – |
| CC(C)C(Br)C(=O)NC(N)=O (stereo not given) | – | inactive: 6.07% |
| COC(=O)CC1CC2(C(=O)c3c(O)cccc3C2(O)C(=O)OC)C(C)O1 (stereo not given) | – | inactive: 1.68% [at 38.5 µM] |
| C[C@H](NC(=O)Cc1cc(F)cc(F)c1)C(=O)N[C@@H]1N=C(c2ccccc2)c2ccccc2N(C)C1=O | inconclusive: 35.5 µM [rising, single point] | – |
| CC(=O)OCC1=C(C(=O)O)N2C(=O)[C@@H](N)[C@H]2SC1 | inactive | – |
| C[C@]12CCC(=O)C=C1CC[C@@H]1[C@@H]2CC[C@@]2(C)[C@H]1CC[C@]2(C)O | inconclusive: 39.8 µM [rising, single point] | – |
| CN(C)CCc1c[nH]c2cccc(O)c12 | inconclusive: 39.8 µM [rising, partial curve, poor fit] | – |
| NP(N)(=O)NC(=O)c1ccc(F)cc1 | – | inactive: 13.5% |
| CC1=CC2/C=C(\C)CCC(O)C(O)/C=C/C(=O)OC23C(=O)NC(CC(C)C)C3C1C (stereo not given) | inconclusive: 0.251 µM [rising, partial curve, poor fit] | – |
| C=C1CC[C@H]2[C@@H](/C=C(\C)C(=O)[C@@]3(OC(C)=O)C[C@H](C)[C@H](OC(=O)c4ccccc4)[C@@H]3[C@H]1OC(C)=O)C2(C)C | – | inactive: 24.8% [at 25.3 µM] |
| CC[C@@H](CO)NC(=O)[C@@H]1C=C2c3cccc4[nH]cc(c34)C[C@H]2N(C)C1 | inconclusive: 5.01 µM [rising, single point] | – |
| C#CCN(C)[C@H](C)Cc1ccccc1 | inconclusive: 2.51 µM [rising, full curve, poor fit] | – |
| CCC(=O)O[C@@H]1C=C2CCC3C(CCC4(C)C3CC[C@@H]4OC(=O)CC)C2CC1 (stereo not given in full) | – | inactive: 8.54% |
| C1=C(c2cnc[nH]2)c2ccsc2CC1 | inconclusive: 22.4 µM [rising, single point] | – |
